Common to all, as to assay: glycan array binding signal (z-score within array); higher = stronger binding
Common to all, as to details: glycan notation: IUPAC condensed, linker removed

The target of assay [1] is Neu5Ac(a2-8)Neu5Ac(a2-8)Neu5Ac(a2-8)Neu5Ac(a2-3)[GalNAc(b1-4)]Gal(b1-4)Glc. A digest of the protocol: (§1)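 Columns mapping to the same glycan were averaged after glycan names were converted to IUPAC-condensed notation. The data come from 3228 arrays in the Consortium for Functional Glycomics database, limited to those with an available protein sequence. Binding is reported as a within-array Z-score averaged across arrays of one protein sequence and across linkers.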

For assay [2], the target named is Neu5Ac9Ac(a2-6)Gal(b1-4)GlcNAc. A digest of the protocol:
as §1

The target of assay [3] is Neu5Gc(a2-3)Gal(b1-3)GlcNAc. A digest of the protocol: as §1
The target of assay [4] is Neu5Gc(a2-3)Gal(b1-3)[Fuc(a1-4)]GlcNAc. A digest of the protocol: as §1
In the next assay the target is Neu5Gc(a2-3)Gal(b1-4)Glc. A digest of the protocol: as §1
Assay [5] has as its target Neu5Gc(a2-3)Gal(b1-4)GlcNAc. A digest of the protocol:
as §1

For assay [6], the target named is Neu5Gc(a2-3)Gal(b1-4)[Fuc(a1-4)]GlcNAc. A digest of the protocol:
as §1

In assay [7] the target is Neu5Gc(a2-6)Gal(b1-4)GlcNAc. A digest of the protocol: as §1
For the next assay, the target named is Neu5Gc(a2-6)GalNAc. A digest of the protocol: as §1

Some of the results follow.

B1: FBG5 (Homo sapiens), Q8NI29 (protein)
chain: MGASVSRGRAARVPAPEPEPEEALDLSQLPPELLLVVLSHVPPRTLLGRCRQVCRGWRALVDGQALWLLILARDHGATGRALLHLARSCQSPARNARPCPLGRFCARRPIGRNLIRNPCGQEGLRKWMVQHGGDGWVVEENRTTVPGAPSQTCFVTSFSWCCKKQVLDLEEEGLWPELLDSGRIEICVSDWWGARHDSGCMYRLLVQLLDANQTVLDKFSAVPDPIPQWNNNACLHVTHVFSNIKMGVRFVSFEHRGQDTQFWAGHYGARVTNSSVIVRVRLS
In the case of B1, the “glycan array binding signal (z-score)” value is -0.159 in assay [1]; -0.11 in [2]; -0.21 in assay [3]; -0.243 in assay [4]; -0.148 in the assay with Neu5Gc(a2-3)Gal(b1-4)Glc; -0.228 in assay [5]. The “glycan array binding signal (z-score)” value was -0.225 in assay [6], -0.248 in assay [7] and -0.243 in the assay with Neu5Gc(a2-6)GalNAc.

Source of the values: the supplement of paper PMC8728848.
